From PubChem BioAssay AID1508623 (National Center for Advancing Translational Sciences (NCATS), 2021)
The campaign covered roughly 48,000 compounds. About 450 (0.94%) were called active. About 19% were inconclusive and are not listed. Calls come from the whole dose curve; as a rule, active = well fitted inhibition curve with a large enough effect; inconclusive = small, poorly fitted or top-dose-only effect; inactive = no such curve, though single readings can be large or run the other way. The list shows a part of the results.

Assay: Primary qHTS for Identification of Small Molecule Inhibitors of Huntingtin Promoter Activity; note: nearly all actives have a fitted effect of over 50% in size
Conditions: HEK293 HTT promoter firefly luciferase reporter (activity 0% = vehicle and -100% = no light), 24 h; series mostly up to 57.5 µM; activity change, negative = inhibition: at the top concentration
In short: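 HEK293 Fluc reporter, 2,500 cells/well, 24 h pre-culture; cpds up to 57.5 uM final, 24 h 37 degrees C; Dual-Glo, 10 min RT; normalized vehicle = 0%, zero RLU = -100%.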

Activity change, negative = inhibition, inactive:
CN1CCN(CCNC(=O)c2cnn(-c3cccc(Cl)c3)c2C2CCN(C(=O)OC(C)(C)C)CC2)CC1 -9.48%, COc1ccc2nc(SCc3ncc(C)c(OC)c3C)[nH]c2c1 15.4%, Cc1ccc(NC(=O)CSc2ncc3c(n2)-c2ccccc2N(C)S3(=O)=O)c(Cl)c1 -28.6%, CCC(CC)C(=O)Nc1cccc(-c2nc3ncccn3c2C)c1 -0.495%, CCc1ccc(CNC(=O)Cn2nc(C)c3c(C)n(-c4ccc(C)cc4)nc3c2=O)cc1 -5.54%, COCCN(Cc1ccco1)C(=O)c1cc2c(Cl)nc3ccc(C)cc3c2s1 0.513%, CCN(CC)CCCNC(=O)CSc1nc2nc(C)c(Cc3ccccc3C)c(C)n2n1 -7.75%, COc1ccc(NC(=O)Cn2nc(SC)c(S(=O)(=O)c3ccc(C)cc3)c2N)cc1OC -21.5%, COc1ccc(-n2nc(C(=O)NCCCOC(C)C)c3c4ccccc4n(C)c3c2=O)cc1 -11.2%, O=C(O)c1ccc2oc(=O)n(Cc3ccccc3)c2c1 8.02%, O=C(Nc1c(Cl)cccc1Cl)c1cccc2c1C(=O)N(C1CCCCC1)C2 -2.47%, CCC(=O)N1CCc2cc(Br)cc(S(=O)(=O)CCC(=O)N(C)c3cccc(C)c3)c21 -2.18%, COc1ccc(CNc2nc3c(-c4ccc(C)cc4)nnn3c3ccccc23)cc1 30.8%, CCOC(=O)c1cc2c(=O)n3ccccc3nc2n(CCCOC)c1=NC(=O)c1c(-c2ccccc2Cl)noc1C -25.6%, Cc1nc2nc(C)c(NS(=O)(=O)c3ccc(F)cc3)c(=O)n2[nH]1 -3.58%, O=C(Cn1cnc(S(=O)(=O)N2CCCC2)c1)Nc1cccc(F)c1 -20.6%, CN(C(=O)Cn1c(=O)n(CCC(=O)NCc2ccc3c(c2)OCO3)c(=O)c2sccc21)c1ccccc1 -6.33%, Cc1ccc(-n2ncc(C(=O)N3CCN(C4CCCCC4)CC3)c2C2CCN(C(=O)OC(C)(C)C)CC2)cc1C -4.46%, Cc1ccc(NC(=O)c2sc3nc4n(c(=O)c3c2C)CCCCC4)c(Br)c1 1.84%, Cc1cccc(N2CCN(C(=O)CCCn3c(=O)[nH]c4ccsc4c3=O)CC2)c1C -10.6%, CCCCCCc1c(C)c2c(cc(C)c3c(C)c(C)oc32)oc1=O -22.7%, O=C1CC(c2nc3ccccc3n2CCC2CCCCC2)CN1c1ccccc1Cl (stereo unspecified) -20.2%, Oc1c(C(c2ccccc2F)N2CCC3(CC2)OCCO3)sc2nc(-c3ccco3)nn12 (stereo unspecified) 1.99%, CCCCN(C(=O)Nc1ccc(Cl)cc1)C1CCN(C(C)=O)CC1 12.8%, O=C(NC1CCCCC1)c1ccc(CSc2nc3ccncc3n2Cc2ccccc2)cc1 -21.4%, Cc1ccc2onc(CC(=O)N3CCN(c4ccc(Cl)cc4)CC3)c2c1 -17.7%
